Test system: HSV-1
Experiment: Effect of LTB4 on the biological activity of acyclovir, HSV-1-infected PBMC, plaque assay on Vero cells
Settings: suboptimal concentration of acyclovir, four days of culture
Experimental: PBMC (10^6 cells/ml) were infected with HSV-1 and treated with acyclovir or with LTB4 or with a combination of both drugs. A suboptimal concentration of acyclovir was used to assess the effect of LTB4 on the biological activity of acyclovir. After four days of culture, cell-free supernatants containing viral particles were harvested and the number of particles was titrated by plaque assay on Vero cell monolayers. Briefly, 0.2 ml of serially diluted (log10) culture supernatants to be tested were added to confluent monolayers of Vero cells in duplicate for 1 hour at 37° C. Unadsorbed particles were removed by washing and minimal media containing 1% methyl cellulose was added to the monolayers. Between days 5 to 7 post-infection, the cultures were fixed with methanol and stained with crystal violet. The number of plaques (PFU: plaque forming units), reflective of the number of infectious particles, were counted and the viral titer from each experimental group determined, and the effective inhibitory dose calculated. […] The results illustrated in FIG. 10 are representative of five others.

CCCCC/C=C\C[C@@H](O)/C=C/C=C/C=C\[C@@H](O)CCCC(=O)O [LTB4, 5S,12R-dihydroxy-6,8,10,14 (Z,E,E,Z)-eicosatetraenoic acid]
effect of LTB4 on antiviral effect of acyclovir in co-culture: does not reduce the antiviral effect of acyclovir

— patent US7473708B2, “Agents with leukotriene B4-like antiviral (enveloped RNA) activities” (priority 1996, dated 2009)
